{"source": "the RNAGym collection of RNA variant scans (doi:10.7554/elife.90254)", "parents": {"B1": {"name": "OR4K15 (parent)", "chain": "GUUAACGGUCAUAGGCCAUGGAAACUAGGAGCACCAUUUCGCUGCCAGUGAAGAAAUGAACAAAGAAAAUCUGGGCCAGGCAGGCAUCAAAAGAAAUAGUCUUGCGCUCAACCAGAAAGUCUGUAAUCAUUUUAAGGGUA"}}, "note": "The source gives no read counts; variants with many changes may rest on few reads."}
{"variants_of": "B1", "experiment": "self-cleavage, relative activity (ratio to wild type); higher = more cleavage; in vitro, sequencing; the parent is a self-cleaving ribozyme"}
{"variant": "GUUAACGGUCCUAGGCCAUGGAAACUAGGAGCACCAUUUCGCUGCCAGUGAAGAAAUGAACAAAGAAAAUCUGGGCCAGGCAGGCAUCAAAAGAAAUAGUCUUGCGCUCAACCGGAGAGUCUGUAAUCAUUUUAAGGGUA", "note": "[A11C A114G A117G]", "self-cleavage": 0.19}
{"variant": "GUUAACGGUCAUAGGCCAUGGAAACUAGGAGCACCUUUUCGCUGCCAGUGAUGAAAUGAACAAAGAAAAUCUGGGCCAGGCAGGCAUCAAAAGAAAUAGCCUUGCGCUCAACCAGAAAGUCUGUAAUCAUUUUAAGGGUA", "note": "[A36U A52U U100C]", "self-cleavage": 2.21}
{"variant": "GUUAACGGUCAUAGGCCAUGGAAACUAGGAGCGCCAUUUCGCUGCCAGUGAAGAAAUGGACAAAGAAAAUCUGGGCCAGGCAGGCAUCAAAAGAAAUAGCCUUGCGCUCAACCAGAAAGUCUGUAAUCAUUUUAAGGGUA", "note": "[A33G A59G U100C]", "self-cleavage": 1.93}
{"variant": "GUUAACGGUCAUAGGCCAAGGAAACUAGGAGCACCAUUUCGCUGCCAGUGAAGUAAUGAACAAAGAAAAUCUGGGCCGGGCAGGCAUCAAAAGAAAUAGUCUUGCGCUCAACCAGAAAGUCUGUAAUCAUUUUAAGGGUA", "note": "[U19A A54U A78G]", "self-cleavage": 0.24}
{"variant": "GUUAACGGUCAUAGGCCAUGGAAACUAGGAGCACCAUUUCGCUGCCAGUGGAGAAAUGAACAAAGAAAAUCUGGGUCAGGCAGGCAUCAAAAGAAACAGUCUUGCGCUCAACCAGAAAGACUGUAAUCAUCUUAAGGGUA", "note": "[A51G C76U U97C U120A U131C]", "self-cleavage": 0.01}
{"variant": "GUUAACGGUCAUAGGCCAUGGAGACUAGGAGCACCAUUUCGCUGCCAGUGAAGAAACGAACAAAGAAAAUCUGGGCCAGGCAGGCAUCAAAAGAAAUAGUCUUGCGCUCAACCAGAAAGCCUGUAAUCAUUUUAAGGGUA", "note": "[A23G U57C U120C]", "self-cleavage": 0.1}
{"variant": "GUUAACGGUCAUAGGCCAUGGAAACUAGGAGCACCAUUUCGCCGCCAGUGAAGAAAUGAACAAAGAAAAUCUGGGCCAGGCAGGCAUCAGAAGAAAUAGCCUUGCGCUCAACCAGAAAGUCUGUAAUCAUUUUAAGGGUA", "note": "[U43C A90G U100C]", "self-cleavage": 2.9}
{"variant": "GUUAACGGUCAUAGGCCAUGGAAACUAGGAGCACCAUUUCGCUGCCAGUGUAGAAAUGAACAAAGAGGAUCUGGGCCAGGCAGGCAUCAAAAGAAAUAGUCUGGCACUCAACCAGAAAGUCUGUAAUCAUUUUAAGGGUA", "note": "[A51U A67G A68G U103G G106A]", "self-cleavage": 0.02}
{"variant": "GUUAACGGUCAUAGGCCAUGGAAACUAGGAGCACAAUUUCGCUGCCAGUGAAGAAAUGAACAAAGAAAAUCUGGGCCAGGCAGGCAUCAAAAGAAAUAGUCUUGCGCUCAACUAGGAAGUCUGUAAUCAUUUUAAGGGUA", "note": "[C35A C113U A116G]", "self-cleavage": 0}
{"variant": "GUUAACGGUCAUAGGCCAUGGAAACUAGGGGCACCAUUUCGCUGCCAGUGAAGAAAUGAACAAAGAAAAUCUGGGCCAGGCAGGCACCAAAAGAAAUAGUCUUGCGCUCAACCAGAAAGUCUGUAAUCAUCUUAAGGGUA", "note": "[A30G U87C U131C]", "self-cleavage": 1.61}
{"variant": "GUUAACGGUCAUAGGCCUUGGAAGCUAGGAGCACCAUUUCGCUGCCAGUGAAGAAAUGAACAAAGAAAAUCUGGGCCAGGCAGGCAUCAGAAGAAAUAGUCUUGCGCUCAACCAGAAAGUCUGUAAUCAUUUUAAGGGUA", "note": "[A18U A24G A90G]", "self-cleavage": 1.38}
{"variant": "GUUAACGGUCAUAGGCCAUGGAAACUAGGAGCUCCAUUUCGCUGCCAGUGAAGAGAAGAACAAAGAAGAUCUGGGCCAGGCAGGCAUCAAAAGAAAUAGUCUUGCGCUCAACCAGAAAGUCUGUAAUCAUUUUAAGGGUA", "note": "[A33U A55G U57A A68G]", "self-cleavage": 1.07}
{"variant": "GUUAACGGUCAUAGGCCAUGGAAACUAGGAGCACCAUUCCGCUGCCAGUGAAGAAAUGAACAUAGAAAAUCUGGGCCAGGCAGGCAUCAAAAGAAAUAGUCUUGCGCCCAACCAGAAAGUCUGAAAUCAUUUUAAGGGUA", "note": "[U39C A63U U108C U124A]", "self-cleavage": 0.03}
{"variant": "GUUAACGGUCGUAGGCCAUGGAAACUAGGAGCACCAUUUCGCUGCCAGUGAAGAAAUGAACAAAGAAAAUCUGGGCCAGGCAGGCAUCAAAAGAAAUAGUCUUGCGCUCAACCAGAAGGCCUGUAAUCAUUUUAAGGGUA", "note": "[A11G A118G U120C]", "self-cleavage": 0.24}
{"variant": "GUUAACGGUCGUAGGCCAUGGAAACUAGGAGCACCAUUUCGCUGCCAGUGAAGAAAUGAACGAAGAAAAUCUGGGCCAGGCAGGCGUCAAAAGAAAUAGUCUUGCGCUCAACCAGAAAGUCUGUAAUCAUUUUAAGGGUA", "note": "[A11G A62G A86G]", "self-cleavage": 0.95}
{"variant": "GUUAACGGUCAUAGGCCAUGGAAACUAGGAGCACCAUUUCGCUGCCAGUGUAGAAGUGAACAAAGAAAAUCUGGGCCAGGCAGGCAUCAAAGGAAAUAGUCUUGCGCUCAACCAGAAAGUCUGUAAUCAUUUUAAGGGUA", "note": "[A51U A56G A92G]", "self-cleavage": 1.01}
{"variant": "GUUAACGGUCAUAGGCCGUGGAAACUAGGAGCACCAUUUCGCUGCCAGCGAAGAAAUGAACAAGGAAAAUCUGGGCCAGGCAGGCAUCAAAAGAAAUAGUCUUGCGCUCAACCAGAAAGUCUGUAAUCUUUUUAAGGGUA", "note": "[A18G U49C A64G A129U]", "self-cleavage": 0.56}
{"variant": "GUUAACGGUCAUAGGCCAUGGAAACUAGGAGCACCAUUUCGCUGCCAGUGAAGGAACGAACAAAGAAAAUCUGGGCCAGGCAGGCAUCAAAAGAAAUAGUCUUGCGCUCAACCAGAAAGUCUGUAGUCAUUUUAAGGGUA", "note": "[A54G U57C A126G]", "self-cleavage": 0.79}
{"variant": "GUUAACGGUCAUAGGCCAUGGAAACUAGGAGCACCAUUUCGCUGCCAGUGAAGGAAUGAACAAAGAAAAUCUGGGCCAGGCAGGCACCAAAAGAAAUAGUCUUGCGCUCAACCAGAAAGUCUGUAGUCAUUUUAAGGGUA", "note": "[A54G U87C A126G]", "self-cleavage": 0.52}
{"variant": "GUUAACGGACAUAGGCCAUGGAAACUAGGAGCACCAUUCCGCUGCCAGUGAAGAAAUGAACAAAGAAAGUCUGGGCCAGGCAGGCAUCAAAAGAAAUAGUCUUGCGCUCAACCAGAAAGUCUGUAAUCAUUUUAAGGGUA", "note": "[U9A U39C A69G]", "self-cleavage": 0.76}
{"variant": "GUUAACGGUCAUAGGCCAUGGAAACUAGGAGCACCAUUUCGCUGCCAGUAAGGAAAUGAACAAAGAGAAUCUGGGCCAGGCAGGCAUCAAAAGAAAUAGUCUUGCGCUCAACCAGAAAGUCUGUAAUCAUUUUAAGGGUA", "note": "[G50A A52G A67G]", "self-cleavage": 0.43}
